The source of these data is the supplement of paper PMC10126150.

The subject of the series is ATP. In words: switch fluorescence ratio, 500 uM ATP over buffer (Cy3 cluster intensity, sum of 5 cycles each) (fold (ratio)); higher = stronger signal-on switching upon ATP binding; sequences stand for … in TCGTCGGCAGCGTCAGATGTGTATAAGAGACAGTTTTTTTTTTTTTTTTTTTTTTTTT…TC. As to conditions: aptamer strand: ATP DNA aptamer (quencher-CACCTGGGGGAGTATTGCGGAGGAAGG + anchor), 100 nM annealed; ATP concentration: 500 uM; one replicate. In a few lines: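 For every switch-domain sequence, the fluorescence ratio is the mean of per-cluster values, each being summed target-cycle Cy3 intensity over summed buffer-cycle Cy3 intensity. Clusters outside 100-1000 RFU were excluded. On a modified Illumina MiSeq flow-cell, the Cy3-labelled switching-strand clusters were annealed to 100 nM quencher-labelled ATP aptamer, imaged in selection buffer and then after 15 min with 500 uM ATP at 22 °C. Five such cycles were run, with NaOH stripping and re-annealing between them.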

Values marked as one replicate rest on one cluster of the flow cell; about a third of the high ones do not repeat.
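Note: ATP exposure 15 min at 22 °C before imaging.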

For the sequence ATGATTCGTC, the switch fluorescence ratio was determined as 1.01. To CGGTAAGTAG belongs 1; to GGATACAGGT, 1.01.

Consider TTATGAGAAT, for which the switch fluorescence ratio stood at 1.02. To TTGGTATCAC belongs 1.01; to AGGAGACGCC, 1.03. The figure for ATACTCGGC is 1.08; for GCATACATCT it is 0.993.

With GATGAAAAGG, the switch fluorescence ratio came to 0.994. To AAATAAGGGT belongs 1.04. To ATTAGCTAGA belongs 0.975; to AGTAGATACC, 1.02. The figure for AGGGCCCTGA is 0.974. Take CTAGTAAGT: the switch fluorescence ratio came to 1.02.

Regarding CTATTCTAGC, the switch fluorescence ratio stood at 1.09. To TCGCAAAAAG belongs 1.07; to GTTAAATTCC, 2.3; to AGAAGCATG, 1.02. The figure for GCTCTTTGGA is 0.975. To CACTGGTGCT belongs 1.16. In the case of CACGACTCAC, the switch fluorescence ratio was 1.39.

Consider GTATTATATC, for which the switch fluorescence ratio is 0.962.

As for AACACGGGAG, the switch fluorescence ratio is 0.999.

As to TCGAGAAG, the switch fluorescence ratio worked out at 0.987. To GGTCGACAGT belongs 0.995; to TCTCGAGAC, 1.06.

With TTTCTTGAGA, the switch fluorescence ratio turned out to be 1.01. The figure for ATTAGGAGCT is 0.994. The figure for TGGCCGGTT is 1.06. The figure for CCACGTGAAT is 1.1. As to AGACAGCACT, the switch fluorescence ratio stood at 1.23. To CATACTATGT belongs 1.02; to ATGTCTATCA, 1.05; to GGTATGCCGC, 0.892. Regarding ATTCGGTTAG, the switch fluorescence ratio was found to be 1.04. To TGGACCCCAG belongs 1.04; to TTTCGGCTT, 0.976. The figure for ATGACTCTGT is 1; for GGCGCTGACG it is 0.977.

GGCATAAACG: the switch fluorescence ratio stood at 1.31. To CCTTTAAAGG belongs 0.998; to GATAGTAAAG, 1.02; to ATCAGTTAGT, 0.991. The figure for TGAGTTGGG is 0.975; for CCTTAGGTAG it is 1.05; for AGGGGGATCC it is 1.02. With GGGGAGTAAG, the switch fluorescence ratio is 0.996.

With GGGTACAAGG, the switch fluorescence ratio turned out to be 1.01. CTAGGAAGTG: the switch fluorescence ratio stood at 1.02. To GGTGGTATAG belongs 0.996; to CCTGCGTAGA, 1.36. The figure for AAGTTTGGCC is 0.995. To TCAGCTAGGG belongs 1.07; to ACTCTGTAAT, 1.86. As for GACACTGGT, the switch fluorescence ratio came to 1.04.

Regarding CCGGCATTAG, the switch fluorescence ratio came out at 4.27. To AGGTGTGCTG belongs 1.02; to GCATCGCCGT, 1. To CGTTTTATTA belongs 0.951. To GGTCGGGCAA belongs 1.2. As for GGTTATTGAA, the switch fluorescence ratio stood at 1.03.

Turning to GACAAGGGAT, the switch fluorescence ratio is 0.995. To TAAGAGAGTT belongs 1.02; to TCCGGTGTTA, 1.11; to GACAAGGGGT, 1.08. To ATTACAATCA belongs 1.03; to CGTCCGTACG, 1.28. The figure for TGGTGGACTT is 0.995; for TGTAAATCGT it is 1.01. In the case of CCCAGAATTG, the switch fluorescence ratio was determined as 1. To CGTAATCTTA belongs 1.01; to CGACTCAAGA, 2.81. The figure for TCATGGGAGC is 1.03; for TTTCGATTCA it is 1.02; for CAGAGGGAGA it is 1.04. To TTATAGCAAC belongs 1.27; to GTCTTCTGCT, 1.02; to GAGATTAGGC, 1.01. Take GATCTTCCTA: the switch fluorescence ratio stood at 1.12. On to GCAGTAGGCT, for which the switch fluorescence ratio was 0.994.

For the sequence GTCGAGGCGG, the switch fluorescence ratio is 1.02.

As to TTTGGCAGGA, the switch fluorescence ratio came to 1.02. The figure for TTTTCGACAT is 1.01; for GTCGTTTCTT it is 0.95. With ATCTGGTGC, the switch fluorescence ratio turned out to be 1.19.

Regarding CCTTAAAGTG, the switch fluorescence ratio came out at 1.02. Turning to ACGAGGTAGG, the switch fluorescence ratio was 1.05. The figure for TCGGTTAGAA is 0.992; for GGGATTTTAT it is 0.933; for AGCAAAAATC it is 1.03. CAGGGATCCG: the switch fluorescence ratio came out at 0.98. The figure for ATAGCTTGGA is 0.984. To TCGGATCAAT belongs 1.1; to TGGTTGCAT, 1.1. To ACCTGTTTCT belongs 1.04. Regarding TTGTTGCACG, the switch fluorescence ratio worked out at 0.981. To GGACATTTGT belongs 0.976; to CATACATGTG, 1.03. As for AATCAAGTCC, the switch fluorescence ratio is 1.01. To ATGCATAGCG belongs 1. In the case of CGATGGGAGA, the switch fluorescence ratio is 0.974. To TTTGTCTTTA belongs 1.

As to CCACTTTTAA, the switch fluorescence ratio was 1.03. For the sequence TAATTGGCCG, the switch fluorescence ratio worked out at 0.899. The figure for CCATGTCTAG is 1.03; for CGGTCCCAGC it is 1.01; for AGGGCAGAA it is 1.04. Consider TGAAATAGAT, for which the switch fluorescence ratio worked out at 0.955. For the sequence ATATCCATTC, the switch fluorescence ratio worked out at 1.01. To GCAATTAGA belongs 0.97; to TCGAGCCGCC, 1.05; to ACTATGCGTG, 1.01.

As to CGCTCCTTGG, the switch fluorescence ratio turned out to be 1.08.

As to CTATGCTATC, the switch fluorescence ratio came out at 1.74. The figure for AGGAACCCTC is 1.01; for TTTATTGGGT it is 1.01; for GAAGTTTTT it is 0.984. For the sequence CCACAGTTTA, the switch fluorescence ratio came out at 0.995. To AAGGTGGGGC belongs 1.04.

Turning to GCACGTCGTA, the switch fluorescence ratio is 1.05.
